# The list shows a part of the results.
# Columns and labels:
# Experiment in all cases: glycan array binding signal (z-score within array); higher = stronger binding
# Settings in all cases: glycan notation: IUPAC condensed, linker removed
# [1] = biological target: GlcNAc(b1-3)Gal(b1-4)GlcNAc(b1-3)Gal(b1-4)GlcNAc(b1-2)Man(a1-3)[GlcNAc(b1-3)Gal(b1-4)GlcNAc(b1-3)Gal(b1-4)GlcNAc(b1-2)Man(a1-6)]Man(b1-4)GlcNAc(b1-4)[Fuc(a1-6)]GlcNAc
# How it was run: (§1)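 The binding signal is a Z-score computed within each array and averaged over linkers. Arrays of the same protein sequence at different concentrations or buffers were also averaged together. Data originate from 3228 arrays in the Consortium for Functional Glycomics database, kept only where the protein sequence was available.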
# [2] = biological target: GlcNAc(b1-3)Gal(b1-4)GlcNAc(b1-3)Gal(b1-4)GlcNAc(b1-2)[GlcNAc(b1-3)Gal(b1-4)GlcNAc(b1-3)Gal(b1-4)GlcNAc(b1-6)]Man(a1-6)[GlcNAc(b1-3)Gal(b1-4)GlcNAc(b1-3)Gal(b1-4)GlcNAc(b1-2)Man(a1-3)]Man(b1-4)GlcNAc(b1-4)[Fuc(a1-6)]GlcNAc
# How it was run: as §1
# [3] = biological target: GlcNAc(b1-3)Gal(b1-4)GlcNAc(b1-3)Gal(b1-4)GlcNAc(b1-3)Gal(b1-4)GlcNAc(b1-2)Man(a1-3)[GlcNAc(b1-3)Gal(b1-4)GlcNAc(b1-3)Gal(b1-4)GlcNAc(b1-3)Gal(b1-4)GlcNAc(b1-2)Man(a1-6)]Man(b1-4)GlcNAc(b1-4)GlcNAc
# How it was run: as §1
# [4] = biological target: GlcNAc(b1-3)Gal(b1-4)GlcNAc(b1-3)Gal(b1-4)GlcNAc(b1-3)Gal(b1-4)GlcNAc(b1-2)Man(a1-3)[GlcNAc(b1-3)Gal(b1-4)GlcNAc(b1-3)Gal(b1-4)GlcNAc(b1-3)Gal(b1-4)GlcNAc(b1-2)Man(a1-6)]Man(b1-4)GlcNAc(b1-4)[Fuc(a1-6)]GlcNAc
# How it was run: as §1
# [5] = biological target: GlcNAc(b1-3)Gal(b1-4)GlcNAc(b1-3)Gal(b1-4)GlcNAc(b1-3)Gal(b1-4)GlcNAc(b1-2)[GlcNAc(b1-3)Gal(b1-4)GlcNAc(b1-3)Gal(b1-4)GlcNAc(b1-3)Gal(b1-4)GlcNAc(b1-6)]Man(a1-6)[GlcNAc(b1-3)Gal(b1-4)GlcNAc(b1-3)Gal(b1-4)GlcNAc(b1-3)Gal(b1-4)GlcNAc(b1-2)Man(a1-3)]Man(b1-4)GlcNAc(b1-4)[Fuc(a1-6)]GlcNAc
# How it was run: as §1
# [6] = biological target: GlcNAc(b1-3)Gal(b1-4)GlcNAc(b1-3)Gal(b1-4)GlcNAc(b1-3)Gal(b1-4)GlcNAc(b1-3)Gal(b1-4)GlcNAc(b1-2)Man(a1-3)[GlcNAc(b1-3)Gal(b1-4)GlcNAc(b1-3)Gal(b1-4)GlcNAc(b1-3)Gal(b1-4)GlcNAc(b1-3)Gal(b1-4)GlcNAc(b1-2)Man(a1-6)]Man(b1-4)GlcNAc(b1-4)GlcNAc
# How it was run: as §1
# [7] = biological target: GlcNAc(b1-3)Gal(b1-4)GlcNAc(b1-3)Gal(b1-4)GlcNAc(b1-3)Gal(b1-4)GlcNAc(b1-3)Gal(b1-4)GlcNAc(b1-2)Man(a1-3)[GlcNAc(b1-3)Gal(b1-4)GlcNAc(b1-3)Gal(b1-4)GlcNAc(b1-3)Gal(b1-4)GlcNAc(b1-3)Gal(b1-4)GlcNAc(b1-2)Man(a1-6)]Man(b1-4)GlcNAc(b1-4)[Fuc(a1-6)]GlcNAc
# How it was run: as §1
# [8] = biological target: GlcNAc(b1-3)Gal(b1-4)GlcNAc(b1-3)Gal(b1-4)GlcNAc(b1-3)Gal(b1-4)GlcNAc(b1-3)Gal(b1-4)GlcNAc(b1-2)[GlcNAc(b1-3)Gal(b1-4)GlcNAc(b1-3)Gal(b1-4)GlcNAc(b1-3)Gal(b1-4)GlcNAc(b1-3)Gal(b1-4)GlcNAc(b1-6)]Man(a1-6)[GlcNAc(b1-3)Gal(b1-4)GlcNAc(b1-3)Gal(b1-4)GlcNAc(b1-3)Gal(b1-4)GlcNAc(b1-3)Gal(b1-4)GlcNAc(b1-2)Man(a1-3)]Man(b1-4)GlcNAc(b1-4)[Fuc(a1-6)]GlcNAc
# How it was run: as §1
# [9] = biological target: GlcNAc(b1-3)Gal(b1-4)GlcNAc(b1-3)Gal(b1-4)GlcNAc(b1-3)GalNAc
# How it was run: as §1
# [10] = biological target: GlcNAc(b1-3)Gal(b1-4)GlcNAc(b1-3)GalNAc
# How it was run: as §1
# [11] = biological target: GlcNAc(b1-3)Gal(b1-4)GlcNAc(b1-3)[GlcNAc(b1-3)Gal(b1-4)GlcNAc(b1-3)]GalNAc
# How it was run: as §1
# [12] = biological target: GlcNAc(b1-3)Gal(b1-4)GlcNAc(b1-6)[Gal(b1-3)]GalNAc
# How it was run: as §1
# [13] = biological target: GlcNAc(b1-3)Gal(b1-4)GlcNAc(b1-6)[GlcNAc(b1-3)Gal(b1-3)]GalNAc
# How it was run: as §1
# [14] = biological target: GlcNAc(b1-3)Gal(b1-4)GlcNAc(b1-6)[GlcNAc(b1-3)]Gal(b1-4)GlcNAc
# How it was run: as §1
# [15] = biological target: GlcNAc(b1-3)GalNAc
# How it was run: as §1
# [16] = biological target: GlcNAc(b1-3)Man
# How it was run: as §1
# [17] = biological target: GlcNAc(b1-3)[GlcNAc(b1-4)][GlcNAc(b1-6)]GlcNAc
# How it was run: as §1
# [18] = biological target: GlcNAc(b1-3)[GlcNAc(b1-6)]Gal(b1-4)GlcNAc
# How it was run: as §1
# [19] = biological target: GlcNAc(b1-3)[GlcNAc(b1-6)]GalNAc
# How it was run: as §1
# [20] = biological target: GlcNAc(b1-3)[GlcNAc(b1-6)]GlcNAc(b1-4)GlcNAc
# How it was run: as §1
# [21] = biological target: GlcNAc(b1-4)Gal(b1-4)GlcNAc
# How it was run: as §1
# [22] = biological target: GlcNAc(b1-4)GlcNAc
# How it was run: as §1
# [23] = biological target: GlcNAc(b1-4)GlcNAc(b1-4)GlcNAc
# How it was run: as §1
# [24] = biological target: GlcNAc(b1-4)GlcNAc(b1-4)GlcNAc(b1-4)GlcNAc(b1-4)GlcNAc
# How it was run: as §1
# [25] = biological target: GlcNAc(b1-4)GlcNAc(b1-4)GlcNAc(b1-4)GlcNAc(b1-4)GlcNAc(b1-4)GlcNAc
# How it was run: as §1
# [26] = biological target: GlcNAc(b1-4)[GlcNAc(b1-6)]GalNAc
# How it was run: as §1
# [27] = biological target: GlcNAc(b1-6)Gal(b1-4)GlcNAc
# How it was run: as §1
# [28] = biological target: GlcNAc(b1-6)GalNAc
# How it was run: as §1
# [29] = biological target: GlcNAc3Prop(b1-4)GlcNAc
# How it was run: as §1
# [30] = biological target: GlcNAc6S(b1-3)Gal(b1-4)GlcNAc
# How it was run: as §1
# [31] = biological target: Kdn(a2-3)Gal(b1-3)GalNAc
# How it was run: as §1
# [32] = biological target: Kdn(a2-3)Gal(b1-3)GlcNAc
# How it was run: as §1
# [33] = biological target: Kdn(a2-3)Gal(b1-4)Glc
# How it was run: as §1
# [34] = biological target: Kdn(a2-3)Gal(b1-4)GlcNAc
# How it was run: as §1
# [35] = biological target: Kdn(a2-3)Gal(b1-4)[Fuc(a1-3)]GlcNAc
# How it was run: as §1
# [36] = biological target: Kdn(a2-6)Gal(b1-4)GlcNAc
# How it was run: as §1
# [37] = biological target: Man(a1-2)Man(a1-2)Man(a1-3)Man
# How it was run: as §1
# [38] = biological target: Man(a1-2)Man(a1-2)Man(a1-6)[Man(a1-3)]Man
# How it was run: as §1
binder,measurement,setting,value
"MAL-II (Maackia amurensis), P93248 (protein) ATSNSKPTQVLLATFLTFFFLLLNNVNSSDELSFTINNFVPNEADLLFQGEASVSSTGVLQLTRVENGQPQQYSVGRALYAAPVRIWDNTTGSVASFSTSFTFVVKAPNPTITSDGLAFFLAPPDSQIPSGRVSKYLGLFNNSNSDSSNQIVAVEFDTYFGHSYDPWDPNYRHIGIDVNGIESIKTVQWDWINGGVAFATITYLAPNKTLIASLVYPSNQTSFIVAASVDLKEILPEWVRVGFSAATGYPTQVETHDVLSWSFTSTLEANSDAATENNVHIARYTA",glycan array binding signal (z-score),[1],0.431
same,glycan array binding signal (z-score),[2],0.696
same,glycan array binding signal (z-score),[3],-0.387
same,glycan array binding signal (z-score),[4],0.385
same,glycan array binding signal (z-score),[5],0.009
same,glycan array binding signal (z-score),[6],0.547
same,glycan array binding signal (z-score),[7],-0.205
same,glycan array binding signal (z-score),[8],-0.371
same,glycan array binding signal (z-score),[9],0.132
same,glycan array binding signal (z-score),[10],-0.159
same,glycan array binding signal (z-score),[11],-0.195
same,glycan array binding signal (z-score),[12],-0.173
same,glycan array binding signal (z-score),[13],-0.245
same,glycan array binding signal (z-score),[14],-0.028
same,glycan array binding signal (z-score),[15],-0.227
same,glycan array binding signal (z-score),[16],-0.225
same,glycan array binding signal (z-score),[17],-0.201
same,glycan array binding signal (z-score),[18],-0.249
same,glycan array binding signal (z-score),[19],-0.162
same,glycan array binding signal (z-score),[20],-0.216
same,glycan array binding signal (z-score),[21],-0.281
same,glycan array binding signal (z-score),[22],-0.219
same,glycan array binding signal (z-score),[23],-0.135
same,glycan array binding signal (z-score),[24],-0.044
same,glycan array binding signal (z-score),[25],-0.147
same,glycan array binding signal (z-score),[26],-0.238
same,glycan array binding signal (z-score),[27],-0.209
same,glycan array binding signal (z-score),[28],-0.213
same,glycan array binding signal (z-score),[29],-0.219
same,glycan array binding signal (z-score),[30],-0.167
same,glycan array binding signal (z-score),[31],3.27
same,glycan array binding signal (z-score),[32],-0.212
same,glycan array binding signal (z-score),[33],-0.171
same,glycan array binding signal (z-score),[34],-0.166
same,glycan array binding signal (z-score),[35],0.01
same,glycan array binding signal (z-score),[36],-0.005
same,glycan array binding signal (z-score),[37],-0.202
same,glycan array binding signal (z-score),[38],-0.1
